Source: article PMC7819943, “Rice protein-binding microarrays: a tool to detect cis-acting elements near promoter regions in rice”
The list shows a part of the results.

Molecular target: T1, OsWOX13 (Oryza sativa, UniProt Q5QMM3 1-267)
T1 sequence: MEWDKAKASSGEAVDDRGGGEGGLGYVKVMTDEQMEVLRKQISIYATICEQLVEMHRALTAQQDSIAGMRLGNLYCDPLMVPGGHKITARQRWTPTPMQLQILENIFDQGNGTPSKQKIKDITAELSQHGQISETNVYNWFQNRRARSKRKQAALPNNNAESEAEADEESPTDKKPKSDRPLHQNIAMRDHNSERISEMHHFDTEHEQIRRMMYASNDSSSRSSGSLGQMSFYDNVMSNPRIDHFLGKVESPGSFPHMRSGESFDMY
Experiment: protein-binding microarray (RPBM); PBS, 2% BSA, 51.3 ng/ul salmon testes DNA, 50 uM zinc acetate, 200 nM TF, 25 C, 1 h; high values mean tight binding
Conditions: protein: recombinant; tags: N-terminal polyhistidine and DsRed monomer fusion (pET32a); label: CyDye5-dUTP incorporated in the synthesized complementary strand; 3' TTTTT single-stranded linker to array surface; dsDNA, one strand shown
Procedure, shortened: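 Ni–NTA purification followed expression in E. coli BL21-CodonPlus of transcription factors fused N-terminally to a polyhistidine tag and DsRed. At 200 nM in PBS with 2% BSA, salmon testes DNA and 50 µM zinc acetate, the protein was incubated for 1 h at 25 °C with a custom Agilent array that had been primer-extended with Cy5-dUTP and blocked with 2% BSA. After washing, the array was read on an Axon 4000B scanner. The binding signal is per-feature fluorescence intensity in arbitrary units.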

Which binding signal does the source give for “CCCGATTGAGATAGGTCATCTGTGACGGGCTATAGTTTGACGGAGTCACCTAGTGCAG” here?
Its binding signal is 22800 fluorescence intensity (a.u.).

“AGTAAATAAATAGATTAAAGTGCAGGTGGGAGAAACAACGCGGAGTCACCTAGTGCAG” was tested. Which binding signal did it give?
The binding signal was 19500 fluorescence intensity (a.u.).

With “CACTACAAATTAATGAGACACTAAGTTAAGTTATATTGACCGGAGTCACCTAGTGCAG” as the sequence, how does the binding signal read?
The binding signal was 4590 fluorescence intensity (a.u.).

With “AGCCAATCAACGGTGGGCCACATTGCTGAACATATAAATTCGGAGTCACCTAGTGCAG” as the sequence, how does the binding signal read?
The binding signal was 5510 fluorescence intensity (a.u.).

With “AATAAATTCTGATAGATTTACCCCAGTCGGGCCGTAACGGCGGAGTCACCTAGTGCAG” as the sequence, how does the binding signal read?
The binding signal was 17800 fluorescence intensity (a.u.).

“GTTTTAATTCATATTGATGGAGTACTTCATTTAACCGAAACGGAGTCACCTAGTGCAG” was tested. Which binding signal did it give?
The binding signal was 5980 fluorescence intensity (a.u.).

With “TAAAATTAGATGACGCACATTGACTAATATAACAATTTGGCGGAGTCACCTAGTGCAG” as the sequence, how does the binding signal read?
The binding signal was 21600 fluorescence intensity (a.u.).

For “TAAATAATTTCCTTGGTGTGGTACTCTTTGAAAACGTTATCGGAGTCACCTAGTGCAG”, which binding signal is on record?
The binding signal was 3690 fluorescence intensity (a.u.).

Which binding signal does the source give for “CCACCAACCAATCAAACTTTCTTGTTAATAATGAATAATTCGGAGTCACCTAGTGCAG” here?
Its binding signal is 3860 fluorescence intensity (a.u.).

For “AATTAATTTTCAAACATCCGATGTGATAGGGACTTAAAAGCGGAGTCACCTAGTGCAG”, which binding signal is on record?
The binding signal was 8480 fluorescence intensity (a.u.).

How did the binding signal turn out when “GTTCAATATACTAATTAGTGTGACATGGCTCTCATCATATCGGAGTCACCTAGTGCAG” was run?
Its binding signal is 9110 fluorescence intensity (a.u.).

How did the binding signal turn out when “GTGTAGTTAATTACTACACTAGGCTTTTGCTCGTCTTCCGCGGAGTCACCTAGTGCAG” was run?
Its binding signal is 8780 fluorescence intensity (a.u.).

Which binding signal does the source give for “TTATCAATTATCAAGTAACATAATTACATAAGATAAGTGACGGAGTCACCTAGTGCAG” here?
The binding signal was 17000 fluorescence intensity (a.u.).

“GTGTGCCTAATCAATCAGGAGCTCATGTCTATAGCCCACCCGGAGTCACCTAGTGCAG” was tested. Which binding signal did it give?
Its binding signal is 25700 fluorescence intensity (a.u.).

With “GTTAAATAAGCAATTATCCCATTTAACATATCGGAATTTCCGGAGTCACCTAGTGCAG” as the sequence, how does the binding signal read?
The binding signal was 11200 fluorescence intensity (a.u.).

Which binding signal does the source give for “TATATTGATCTAGACATCTAGCCACAATCAGGCAAGGCCACGGAGTCACCTAGTGCAG” here?
Its binding signal is 3650 fluorescence intensity (a.u.).

“CCCTTGATTTTCTTTCCACACCACCGGGACGCGCGTGCCACGGAGTCACCTAGTGCAG” was tested. Which binding signal did it give?
The binding signal was 12200 fluorescence intensity (a.u.).

Which binding signal does the source give for “CAGTAAATTAACCGATGCTAAGATTTGTAACCTACTCTATCGGAGTCACCTAGTGCAG” here?
The binding signal was 13700 fluorescence intensity (a.u.).

With “ACAGGTTGATATCTATCACGAATTCAGAATGAGCACGCCGCGGAGTCACCTAGTGCAG” as the sequence, how does the binding signal read?
The binding signal was 5100 fluorescence intensity (a.u.).

Which binding signal does the source give for “GAGTAAATTTCAGAAAACTGAAATTATAGTGATAAAACTACGGAGTCACCTAGTGCAG” here?
The binding signal was 4330 fluorescence intensity (a.u.).

Which binding signal does the source give for “GCGTCATGATTTGACAATGTGGTGCTATAGTAAACATTTGCGGAGTCACCTAGTGCAG” here?
The binding signal was 20400 fluorescence intensity (a.u.).

With “CGTAATAGACGACCCCATGACCACCCGAGGCAGCTCTGGCCGGAGTCACCTAGTGCAG” as the sequence, how does the binding signal read?
Its binding signal is 18500 fluorescence intensity (a.u.).

How did the binding signal turn out when “ACTCTGATTATGGATATATTTGACCTTTTCATAGTTCTCCCGGAGTCACCTAGTGCAG” was run?
The binding signal was 26200 fluorescence intensity (a.u.).
